Experimental data published in ChEMBL document CHEMBL4476868, “Benzimidazole derivatives and uses thereof” (2017).

Key:
[1] = test system: 786-0; assay: Antitumor activity against human 786-0 cells xenografted in SCID/Biege mouse assessed as tumor size at 200 mg/kg, po BID for 20 days measured twice weekly (reference value: 623.1 +/- 95.1 mm3); type: functional
[2] = molecular target: Acetyl-coenzyme A synthetase, cytoplasmic (Homo sapiens, UniProt Q9NR19); assay: Inhibition of ACSS2 in human HCT116 cells pre-incubated for 2 hrs before [1,2-14C] sodium acetate addition and measured after 3 hrs by [14C]-Acetate uptake assay; type: cell-based
Sequence of UniProt Q9NR19 (Q9NR19 whole entry): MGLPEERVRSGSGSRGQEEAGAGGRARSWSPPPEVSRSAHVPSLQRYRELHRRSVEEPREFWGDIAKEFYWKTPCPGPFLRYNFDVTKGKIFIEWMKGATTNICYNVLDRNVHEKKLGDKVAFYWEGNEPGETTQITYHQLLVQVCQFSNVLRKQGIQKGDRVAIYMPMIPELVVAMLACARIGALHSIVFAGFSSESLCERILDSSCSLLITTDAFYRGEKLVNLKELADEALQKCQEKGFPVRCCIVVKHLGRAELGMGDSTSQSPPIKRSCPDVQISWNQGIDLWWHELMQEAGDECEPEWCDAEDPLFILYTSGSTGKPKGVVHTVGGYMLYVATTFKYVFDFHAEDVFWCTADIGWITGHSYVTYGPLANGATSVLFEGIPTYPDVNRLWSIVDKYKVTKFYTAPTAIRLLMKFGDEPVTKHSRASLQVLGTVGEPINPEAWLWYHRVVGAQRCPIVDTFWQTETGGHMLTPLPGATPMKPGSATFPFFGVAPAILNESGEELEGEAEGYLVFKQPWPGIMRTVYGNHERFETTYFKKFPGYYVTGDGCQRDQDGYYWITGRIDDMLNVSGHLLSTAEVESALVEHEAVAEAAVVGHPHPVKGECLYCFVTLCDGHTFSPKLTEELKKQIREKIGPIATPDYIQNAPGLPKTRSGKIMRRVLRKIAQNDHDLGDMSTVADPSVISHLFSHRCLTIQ

IC50 [2] | Compound | Activity [1]
– | CCn1c(C(O)(c2ccccc2F)c2ccccc2F)nc2ccc(C(=O)NC[C@@H](C)O)cc21 | 475.2 mm3
– | C[C@@H](O)CNC(=O)c1ccc2nc(C(O)(c3ccccc3F)c3ccccc3F)n(C)c2c1 | 597.5 mm3
250 to 1000 nM | CCn1c(C(O)(c2ccccc2)c2ccccc2)nc2ccc(C3(CCO)COC3)cc21 | –
– | CCn1c(C(O)(c2ccccc2)c2ccccc2)nc2ccc(C(=O)NC[C@@H](C)O)cc21 | 281.1 mm3
250 to 1000 nM | CCn1c(C(O)(c2ccccc2)c2ccccc2)nc2ccc(C(=O)N[C@@H]3CCC[C@H]3O)cc21 | –
– | C[C@@H](O)CNC(=O)c1ccc2nc(C(O)(c3ccccc3)c3ccccc3)n(C)c2c1 | 668.9 mm3
250 to 1000 nM | CCN1C[C@H](NC(=O)c2ccc3nc(C(O)(c4ccccc4)c4ccccc4)n(C)c3c2)CCC1=O | –
